# Experimental data taken from paper PMC10162974.
# By UniProt entry, the sequences of proteins in these tests, tags left out. Where a name states a change or a piece, a line headed by the entry shows the natural chain unless it says otherwise.
# UniProt Q00765: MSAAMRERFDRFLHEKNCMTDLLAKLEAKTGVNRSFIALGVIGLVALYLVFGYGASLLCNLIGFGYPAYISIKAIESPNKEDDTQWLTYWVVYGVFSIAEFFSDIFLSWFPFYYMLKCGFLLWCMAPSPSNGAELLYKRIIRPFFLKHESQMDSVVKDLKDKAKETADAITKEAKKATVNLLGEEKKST
# Numbering of substitutions follows the chain as printed. In names and notes the source's numbering stands. No constants are given. Whether binding was seen depends on the method and setting. In cells and extracts the contact can be indirect. Some binding calls cover weakened binding; strength is not graded here. For some of these results: Tags and fused reporters may be left off the sequences shown.
# B1: Yop1p-HA F68C (protein, UniProt Q12402 1-180)
# chain: MSEYASSIHSQMKQFDTKYSGNRILQQLENKTNLPKSYLVAGLGFAYLLLIFINVGGVGEILSNFAGCVLPAYLSLVALKTPTSTDDTQLLTYWIVFSFLSVIEFWSKAILYLIPFYWFLKTVFLIYIALPQTGGARMIYQKIVAPLTDRYILRDVSKTEKDEIRASVNEASKATGASVH
# B2: Yop1p-HA L43C (protein, UniProt Q12402 1-180)
# chain: B1 chain with L43C, C68F
# B3: Yop1p-HA F45C (protein, UniProt Q12402 1-180)
# chain: B1 chain with F45C, C68F
# B4: Yop1p-HA D87C (protein, UniProt Q12402 1-180)
# chain: B1 chain with C68F, D87C
# B5: Yop1p-HA S157C (protein, UniProt Q12402 1-180)
# chain: B1 chain with C68F, S157C
# B6: Yop1p-HA S178C (protein, UniProt Q12402 1-180)
# chain: B1 chain with C68F, S178C
# B7: Yop1p-HA F116C (protein, UniProt Q12402 1-180)
# chain: B1 chain with C68F, F116C
# B8: Yop1p-HA F65C/V123C (protein, UniProt Q12402 1-180)
# chain: B1 chain with F65C, C68F, V123C
# B9: Yop1p-HA F65C/S178C (protein, UniProt Q12402 1-180)
# chain: B1 chain with F65C, C68F, S178C
# B10: Yop1p-HA V123C/S178C (protein, UniProt Q12402 1-180)
# chain: B1 chain with C68F, V123C, S178C
# B11: Yop1p-HA F65C/F68C (protein, UniProt Q12402 1-180)
# chain: B1 chain with F65C
# B12: Yop1p-HA F65C (protein, UniProt Q12402 1-180)
# chain: B1 chain with F65C, C68F
# B13: Yop1p-HA F116C/V123C (protein, UniProt Q12402 1-180)
# chain: B1 chain with C68F, F116C, V123C
# B14: Yop1p-HA W94C (protein, UniProt Q12402 1-180)
# chain: B1 chain with C68F, W94C
# B15: Yop1p-HA V123C (protein, UniProt Q12402 1-180)
# chain: B1 chain with C68F, V123C
# B16: Yop1p-HA F124C (protein, UniProt Q12402 1-180)
# chain: B1 chain with C68F, F124C
# B17: Yop1p-HA I126C (protein, UniProt Q12402 1-180)
# chain: B1 chain with C68F, I126C
# B18: Yop1p-HA F97C (protein, UniProt Q12402 1-180)
# chain: B1 chain with C68F, F97C
# B19: Yop1p-HA F99C (protein, UniProt Q12402 1-180)
# chain: B1 chain with C68F, F99C
# B20: Yop1p-HA L100C (protein, UniProt Q12402 1-180)
# chain: B1 chain with C68F, L100C
# B21: Yop1p-HA L125C (protein, UniProt Q12402 1-180)
# chain: B1 chain with C68F, L125C
# B22: Yop1p-HA L49C (protein, UniProt Q12402 1-180)
# chain: B1 chain with L49C, C68F
# B23: Yop1p-HA S2C (protein, UniProt Q12402 1-180)
# chain: B1 chain with S2C, C68F
# B24: Yop1p-HA W118C (protein, UniProt Q12402 1-180)
# chain: B1 chain with C68F, W118C
# Tests used:
# [1] = molecular target: REEP5-HA L61F/G119V (human) (UniProt Q00765); assay: cross-linking; EGS cross-linking of yeast membrane pellet in HKM buffer (25 mM Hepes pH 7.8, 150 mM KCl, 2.5 mM MgCl2), 30 min, room temperature; 4-20% SDS-PAGE, anti-HA blot
# [2] = molecular target: Yop1p-HA F68C (S. cerevisiae) (UniProt Q12402); assay: cross-linking; disulfide cross-linking of single-Cys Yop1p-HA in yeast microsomal membrane fractions, 1 mM copper-o-phenanthroline (Cu:Phe), 30 min, room temperature; 100 mM DTT as reduced control; non-reducing SDS-PAGE, anti-HA blot
# [3] = molecular target: Yop1p-HA L43C (S. cerevisiae) (UniProt Q12402); assay: as above
# [4] = molecular target: Yop1p-HA F45C (S. cerevisiae) (UniProt Q12402); assay: as above
# [5] = molecular target: Yop1p-HA D87C (S. cerevisiae) (UniProt Q12402); assay: cross-linking; disulfide cross-linking of single-Cys Yop1p-HA (cytosolic regions) in yeast microsomal membrane fractions, oxidation by 2 mM diamide, 30 min, room temperature; anti-HA blot
# [6] = molecular target: Yop1p-HA S157C (S. cerevisiae) (UniProt Q12402); assay: as above
# [7] = molecular target: Yop1p-HA S178C (S. cerevisiae) (UniProt Q12402); assay: as above
# [8] = molecular target: Yop1p-HA F116C (S. cerevisiae) (UniProt Q12402); assay: cross-linking; disulfide cross-linking of Cys mutants of Yop1p-HA (F116C, W118C, double mutants) upon oxidation; oxidant not named for these panels
# [9] = molecular target: Yop1p-HA F65C/V123C (S. cerevisiae) (UniProt Q12402); assay: as above
# [10] = molecular target: Yop1p-HA F65C/S178C (S. cerevisiae) (UniProt Q12402); assay: as above
# [11] = molecular target: Yop1p-HA V123C/S178C (S. cerevisiae) (UniProt Q12402); assay: as above
# [12] = molecular target: Yop1p-HA F65C/F68C (S. cerevisiae) (UniProt Q12402); assay: as above
# [13] = molecular target: Yop1p-HA F65C (S. cerevisiae) (UniProt Q12402); assay: cross-linking; disulfide cross-linking of single-Cys Yop1p-HA in yeast microsomal membrane fractions, 1 mM copper-o-phenanthroline (Cu:Phe), 30 min, room temperature; 100 mM DTT as reduced control; non-reducing SDS-PAGE, anti-HA blot
# [14] = molecular target: Yop1p-HA F116C/V123C (S. cerevisiae) (UniProt Q12402); assay: cross-linking; disulfide cross-linking of Cys mutants of Yop1p-HA (F116C, W118C, double mutants) upon oxidation; oxidant not named for these panels
# [15] = molecular target: Yop1p-HA W94C (S. cerevisiae) (UniProt Q12402); assay: cross-linking; disulfide cross-linking of single-Cys Yop1p-HA in yeast microsomal membrane fractions, 1 mM copper-o-phenanthroline (Cu:Phe), 30 min, room temperature; 100 mM DTT as reduced control; non-reducing SDS-PAGE, anti-HA blot
# [16] = molecular target: Yop1p-HA V123C (S. cerevisiae) (UniProt Q12402); assay: as above
# [17] = molecular target: Yop1p-HA F124C (S. cerevisiae) (UniProt Q12402); assay: as above
# [18] = molecular target: Yop1p-HA I126C (S. cerevisiae) (UniProt Q12402); assay: as above
# [19] = molecular target: Yop1p-HA F97C (S. cerevisiae) (UniProt Q12402); assay: as above
# [20] = molecular target: Yop1p-HA F99C (S. cerevisiae) (UniProt Q12402); assay: as above
# [21] = molecular target: Yop1p-HA L100C (S. cerevisiae) (UniProt Q12402); assay: as above
# [22] = molecular target: Yop1p-HA L125C (S. cerevisiae) (UniProt Q12402); assay: as above
# [23] = molecular target: Yop1p-HA L49C (S. cerevisiae) (UniProt Q12402); assay: as above
# [24] = molecular target: Yop1p-HA S2C (S. cerevisiae) (UniProt Q12402); assay: cross-linking; disulfide cross-linking of single-Cys Yop1p-HA (cytosolic regions) in yeast microsomal membrane fractions, oxidation by 2 mM diamide, 30 min, room temperature; anti-HA blot
# [25] = molecular target: Yop1p-HA W118C (S. cerevisiae) (UniProt Q12402); assay: cross-linking; disulfide cross-linking of Cys mutants of Yop1p-HA (F116C, W118C, double mutants) upon oxidation; oxidant not named for these panels
molecule,measurement,setting,value
REEP5-HA L61F/G119V (from UniProt Q00765 1-189),binding,[1],binds
B1,binding,[2],binds
B2,binding,[3],binds
B3,binding,[4],binds
B4,binding,[5],binds
B5,binding,[6],binds
B6,binding,[7],binds
B7,binding,[8],binds
B8,binding,[9],binds
B9,binding,[10],binds
B10,binding,[11],binds
B11,binding,[12],binds
B12,binding,[13],binds
B13,binding,[14],binds
B14,binding,[15],binds
B15,binding,[16],binds
B16,binding,[17],binds
B17,binding,[18],binds
B18,binding,[19],binds weakly
B19,binding,[20],binds weakly
B20,binding,[21],binds weakly
B21,binding,[22],no binding
B22,binding,[23],no binding
B23,binding,[24],no binding
B24,binding,[25],no binding
